The results in this text go back to the supplement of paper PMC11417369.

The list shows a part of the results.

The subject of the experiment is PF3D7_0420300 AP2 domain 1 (GST-tagged). The experiment can be described thus: gcPBM binding intensity (ln(normalized median fluorescence intensity)); higher = stronger DNA binding. The essentials: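 Binding intensity is defined as the maximum Masliner-normalised natural-log median intensity across replicate spots for either probe orientation. It was measured on an Agilent 4 × 180k array of primer-extended double-stranded 36-bp intergenic genomic probes and negative controls, to which GST-tagged P. falciparum DNA-binding domains made in E. coli were applied for 1 h in 1× PBS with 1% milk, 0.2 mg/ml BSA, 0.5% salmon testes DNA and 0.03% Triton X-100. Detection was by Alexa488 anti-GST antibody and scanning at 488 nm.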
“ATTGTATGCACGTCTGCACACTTTTTTTTTTTTTTT [CACACA_site2082]”: the “gcPBM binding intensity (ln)” value was found to be 9.36.

For “TTCTATAAGTATAAATGTACAAAAAAAACATCATTC [XGTACX_site5450]”, the “gcPBM binding intensity (ln)” value turned out to be 9.34. For “CATATTCCAAGAATGTGTACATAATTTTTTTTTTTT [XGTACX_site4310]”, the “gcPBM binding intensity (ln)” value was found to be 9.07. For “CTCATAATTTCTGAACGTACGTATTTCTCATTTTTA [XGTACX_site7296]” the value was 9.37; for “ATTTTTTTTTAATGCAAAAGGTGATGATCGGTCATA [CACACA_negctrl_site959]”, 8.89. For TAATTATAAATTATAGTGCATAAAATTGTAGCATAA the value was 9.15; for “AAAATATGATATGAAAAATTTGTTATATATACATAA [CACACA_negctrl_site1529]”, 9.12. To “GACATTTGTGAGCTTGAGCCGTCAAACCACTAAATA [CACACA_negctrl_site552]” belongs 9.03.

With “TGTATTAATATGGTAATACACACTAATATACTTTTG [CACACA_site1610]”, the “gcPBM binding intensity (ln)” value was found to be 9.38. For the sequence “AACATAATAAAAATGGATATAATTCAAAGTTTGTAA [TGCATGCA_negctrl_site529]”, the “gcPBM binding intensity (ln)” value was 9.25. With “TGTTATTCGACATATACACACAAATAACAATTTAAA [CACACA_site5076]”, the “gcPBM binding intensity (ln)” value was 9.35. To “AAAAAATTGAAGGAGTGTACATTTATACTTTATTTT [XGTACX_site8623]” belongs 9.19.

For “TGTAGAATTTCCTGAACATGCAAATAATTTTCCTTA [TGCATGCA_site881]”, the “gcPBM binding intensity (ln)” value is 8.98. To “AGGTCTGTTTTATATTGTACATAAAAAGTGCACATG [XGTACX_site4529]” belongs 9.53.

As to “TTTTTTACATCCATAAAACTTTTTCTCTTTTAAAAT [CACACA_negctrl_site1745]”, the “gcPBM binding intensity (ln)” value amounted to 8.94. For “AGAGAGAAAGGTATAACATGCGATAAATTTTAGAAG [TGCATGCA_site37]” the value was 9.35; for “ATATAGTTCGTTTATACACACATGATAAGATATTTA [CACACA_site1947]”, 9.57.

“AAATCACTTTTTAAGTGTACTTGGTCTTTCTCATTT [XGTACX_site7221]”: the “gcPBM binding intensity (ln)” value was found to be 9.28.

Turning to “TTTTCTTGATTTTGTAGTACATTTTTACGATATTTT [XGTACX_site63]”, the “gcPBM binding intensity (ln)” value worked out at 9.47. For “ATGTAAATTATTATTCTATTGTTATATACACAATAT [XGTACX_negctrl_site332]” the value was 9.32; for “CACATACATATATACACACACAAAATAATAAAATAA [CACACA_site2308]”, 10; for “AAAATTATATTTTATAGAAATTTAAATAAATATATA [GTGCAC_negctrl_site199]”, 8.77. Regarding “TTTTTAAAAATAACAGAAAAGAATTACAGATTTTTT [XGTACX_negctrl_site472]”, the “gcPBM binding intensity (ln)” value was found to be 8.99.

For “TACAAATATAGATGCACACACATATAGGTATATGTG [CACACA_site7439]”, the “gcPBM binding intensity (ln)” value stood at 9.64.
